Results published in PubChem BioAssay AID652104 (National Center for Advancing Translational Sciences (NCATS), 2013).
In all, about 410,000 compounds went through this assay and about 7,200 (1.8%) were called active. The inconclusive results got no clear call from the source; some entries with a clear call stand among them for comparison. Calls come from the whole dose curve; as a rule, active = well fitted activation curve with a large enough effect; inconclusive = small, poorly fitted or top-dose-only effect, or another doubt; inactive = no such curve, though single readings can be large or run the other way. No potency is given beside an inconclusive call; the fits are too rough.

assay: qHTS of TDP-43 Inhibitors; conditions: TDP-43 expressing yeast growth rescue, BacTiter-Glo, 24 h; series mostly up to 46.1 µM; note: nearly all actives have a fitted effect of over 50% in size
In short: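 Readout is BacTiter-Glo luminescence of cell growth, so inhibitors register as activators. TDP-43-expressing yeast at OD600=0.02 in galactose medium, after raffinose pregrowth to mid-log, were incubated with compound for 24 hr at 30 deg C.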
Potency is the fitted concentration of half-maximal effect; tags give direction and shape of the fitted curve.

SMILES	Potency
COC(=O)c1ccc(COc2ccc(C)c(C)c2)o1	inconclusive [activator, partial curve]
COC(=O)NC1CSCC1OC(=O)c1ccc(Br)cc1 (stereo unspecified)	inconclusive [activator, partial curve]
CCN(CC)CCNC(=O)c1c2c(nc3ccccc13)C(=O)N(C1CCCCC1)C2	inactive
O=C(O/N=C1\CCCCC1c1ccc([N+](=O)[O-])cc1[N+](=O)[O-])c1c(F)cccc1F (stereo unspecified)	inconclusive [activator, partial curve]
O=C(c1ccc(COc2ccccc2)o1)N1CCN(S(=O)(=O)c2ccccc2Cl)CC1	active: 15.8 µM
COc1ccc(S(=O)(=O)Nc2ccc3c(c2)CC(=O)N([C@H](C)CO)C[C@H](C)[C@H](CN(C)C(=O)Nc2ccc4c(c2)OCO4)O3)cc1	inconclusive [activator, full curve, poor fit]
CC1=CC(C)(C)NC(=S)N1c1ccc2ccccc2c1	inactive
O=C(CC(=O)c1ccccc1)Nc1cc(C(F)(F)F)ccc1Cl	inconclusive [activator, full curve]
O=C(COc1ccccc1)NNC(=S)NC(=O)c1ccccc1	active: 3.55 µM
COc1ccc(C2=NN(C(=O)CSc3nc4ncc(Cl)cc4[nH]3)C(c3ccco3)C2)cc1 (stereo unspecified)	active: 35.5 µM
COc1ccc(OC)c(NC(=O)C2CCCCC2)c1	inconclusive [activator, full curve, poor fit]
COc1ccccc1-c1cc(C(=O)NCc2ccccc2)c2c(-c3ccc(C)cc3)[nH]nc2n1	inconclusive [activator, partial curve]
COc1ccc(NC(=O)c2oc3ccccc3c2NC(=O)Cc2coc3c(C)c(C)ccc23)cc1	inactive
COC(=O)c1ccccc1NC(=S)NC(=O)C1CCCCC1	inconclusive [activator, partial curve, poor fit]
CCOc1ccccc1C(=O)Nc1ccccc1-c1ccccc1	inconclusive [activator, single point]
O=C(NCc1ccccc1)c1ccc2nnsc2c1	inconclusive [activator, single point]
Nc1nnc(SCC(=O)Nc2cccc(F)c2)s1	inactive
S=c1nc(-c2ccccc2)oc2c1CCCC2	inconclusive [activator, partial curve]
COc1ccc2sc(-c3ccc(N(C)C)cc3)c(-c3ccc4cc[nH]c4c3)c2c1	inconclusive [activator, partial curve]
Cc1ccccc1CN1C(=O)c2ccccc2Sc2ccc(C(=O)O)cc21	inconclusive [activator, single point]
COc1ccc(/C=C2\SC(N)=NC2=O)cc1	inconclusive [activator, partial curve]
Cc1ccc(NC(=O)C2CCCN(c3cnccn3)C2)cc1Cl (stereo unspecified)	active: 22.4 µM
COc1ccccc1-c1noc(-c2cccnc2)n1	active: 11.2 µM

SMILES	Potency
CC(C)Cc1nnc(NC(=O)CCC(=O)N2CCN(c3ccccn3)CC2)s1	inconclusive [activator, partial curve]
COc1c(Cl)cc(C(=O)O)cc1Cl	active: 35.5 µM
COc1ccc(CCNC(=O)COC(=O)/C=C/c2ccc(OC)c(OC)c2)cc1	inconclusive [activator, partial curve]
CCc1cccc(C)c1NC(=O)C1CCN(c2nnc(C)c3c(C)n(-c4ccccc4)nc23)CC1	inactive
CCOC(=O)C1=C(COC(=O)/C=C/c2cccc(Br)c2)NC(=O)NC1C (stereo unspecified)	inactive
Cc1cc(Nc2ccc(C)c(Br)c2)n2nc(C)nc2n1	inconclusive [activator, partial curve]
COc1ccc(C2CC(=O)N3CN(c4ccc(C)c(Cl)c4)CSC3=C2C#N)cc1OC (stereo unspecified)	inconclusive [activator, single point]
Cc1ccc(Cc2c(-c3ccc(F)cc3)nc3ccc(Cl)cn23)cc1	inconclusive [activator, partial curve]
COc1ccc(S(=O)(=O)NC(=O)C2(C)CCN2C(=O)c2ccccc2CCc2ccccc2)cc1 (stereo unspecified)	inconclusive [activator, single point]
CC(=O)c1ccc(Nc2nc(C)cc(C)n2)cc1	inactive
COc1cccc(NC(=O)CCSc2nc(-c3ccco3)cc(C(F)(F)F)n2)c1	inactive
NC(=O)c1ccc(-c2ccccc2F)cc1	inconclusive [activator, partial curve]
CCc1nn2c(=O)cc(COC(=O)c3cccc(NC(=O)COc4ccccc4)c3)nc2s1	inactive
Cc1cccc(Oc2ccc3c(c2)cc(C(=O)O)n3C)c1	inconclusive [activator, single point]
Oc1ccccc1/C=N/NC(=S)NC1CC2C=CC1C2 (stereo unspecified)	inactive
O=C(COc1ccc(Cl)cc1)Nc1ccccc1CO	inconclusive [activator, partial curve]
Clc1ccccc1CSc1nnc(-c2cccnc2)n1Cc1ccco1	inconclusive [activator, single point]
CCc1nc(SCC(=O)N2CCCc3ccccc32)c2oc3ccccc3c2n1	inconclusive [activator, single point]
O=C(CCS(=O)(=O)c1nc(-c2cccs2)cc(C(F)(F)F)n1)Nc1ccc(Br)cc1	inconclusive [activator, single point]
O=C(Nc1ccccc1F)Nc1ccccc1F	inconclusive [activator, partial curve]
O=[N+]([O-])c1ccc(COc2cccc3cccnc23)cc1	inconclusive [activator, partial curve]
CC(C)C(NS(=O)(=O)c1cccc2nsnc12)C(=O)NCCC1=CCCCC1 (stereo unspecified)	inactive
Cc1cc2cc(CCNS(=O)(=O)c3ccc(Br)cc3)c(=O)[nH]c2cc1C	inactive
